This passage reports nonsense suppression results from the RNAGym collection of RNA variant scans (doi:10.1101/gad.245936.114).

The chains are these.
B1: tRNA (parent)
chain: CUCUCGGUAGCCAAGUUGGUUUAAGGCGCAAGACUUUAAUUUAUCACUACGAAAUCUUGAGAUCGGGCGUUCGACUCGCCCCCGGGAGAUUUUUUCCUCGAGCAA

Variants at the background level are over-represented here.

Variants of B1 are the subject of this data set. Put plainly: nonsense suppression (GFP-seq) (ratio to wild type); higher = more function; SUP4oc tRNA, yeast GFP reporter sort-seq. Put shortly:
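Yeast were grown in raffinose/galactose medium with 80 mg/L adenine, each strain bearing a genome-integrated ochre-suppressor tRNA variant from a ~3% random-mutation library, a galactose-driven GFP ochre reporter, and RFP. After sorting into GFP/RFP bins, every bin was sequenced on an Illumina platform at phred ≥30. The GFPSEQ value, a measure of nonsense suppression, is the weighted bin median GFP/RFP relative to the unmutated parent tRNA, using each variant's estimated cell share per bin as the weight. Only variants with ≥100 reads and ≥30 cells were included.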
Turning to A13C U70G, the nonsense suppression is no more than 0.026.
The result for A13U G61U reads 0.447.
As to U20A G69A, the nonsense suppression was no more than 0.026.
With G19U A33G the figure was no more than 0.026; with G15A G86C, no more than 0.026; with C1A G78U, no more than 0.026.
With U8A U22C U57G U63C C83A the figure was no more than 0.026; with G18U A30C A33U, no more than 0.026; with U17C G18U A62C C82A, no more than 0.026.
The result for C11G C79G reads no more than 0.026; that for C5G U20G, no more than 0.026.
For the variant U2C G19C, the nonsense suppression is no more than 0.026.
For C27G C77A G88U, the nonsense suppression was no more than 0.026.
With G15U C75U the figure was no more than 0.026; with G69C U70C, no more than 0.026; with C34U G61C C79G C82G, no more than 0.026.
With A30G A60G the figure was 0.108; with G59U U71C, no more than 0.026.
With G6A A31G the figure was no more than 0.026.
As to U58G G73A, the nonsense suppression was no more than 0.026.
U16C U17C A30G G69A: the nonsense suppression is no more than 0.026.
The result for C3A U4C U21G G85U reads no more than 0.026; that for C5A A30G, 0.0272.
With C1U U35C A62G G86A the figure was no more than 0.026; with A14C A24G G69C, no more than 0.026.
The result for G25U C29G reads no more than 0.026; that for U17C G28U G69A C82A, no more than 0.026; that for C5U U22A G61C, no more than 0.026.
For the variant U22C U70C C80G, the nonsense suppression was no more than 0.026.
The result for U63G A89U reads no more than 0.026; that for A24U A33G G84U, no more than 0.026; that for G6C A74U, no more than 0.026.
The result for A13C G73A reads 0.394; that for U8G A74G A89G, no more than 0.026; that for C5G G25C U55A, no more than 0.026.
With A31C C72A G88C the figure was no more than 0.026; with G19C U22C G66A, no more than 0.026.
As for U21G G32C U55C, the nonsense suppression is no more than 0.026.
With C5U A9G C11A U22A A23C G67A U71A G78U the figure was no more than 0.026.
The result for G7A G19U U71C reads no more than 0.026; that for A9G C11U G32C, no more than 0.026.
In the case of U22G A33C U70C A89C, the nonsense suppression was no more than 0.026.
C12G C29U U35A C56A: the nonsense suppression is no more than 0.026.
For G25A U57C, the nonsense suppression was no more than 0.026.
With C3U G18C U70G C75G the figure was no more than 0.026; with G28C C56A, no more than 0.026; with U4C A9G G10A U20A, no more than 0.026.
With C11A C27G the figure was no more than 0.026.
The result for U8A A14G U63G reads no more than 0.026.
On to A31G A62U, for which the nonsense suppression is no more than 0.026.
The result for C5U G6C reads no more than 0.026; that for U57A U58C, no more than 0.026; that for C5U A30G, no more than 0.026.
The result for G19A A23C reads no more than 0.026.
The result for C34G U58G U76A reads no more than 0.026; that for C11G C12U A13C U63C A74G, no more than 0.026.
As to G26U A60C U70G C72A G84C A89U, the nonsense suppression is no more than 0.026.
The result for G10A C81A C83G reads no more than 0.026; that for C12A U22C C81A, no more than 0.026.
The result for A14G C29G C83A reads no more than 0.026; that for C56U U71C, no more than 0.026; that for C29A A33G G61C, no more than 0.026.
With U2G U20C the figure was no more than 0.026; with G66U C72A A89G, no more than 0.026; with U17A C81U G88C, no more than 0.026.
For the variant G18C A23G A31U G86A, the nonsense suppression is no more than 0.026.
The result for U22C U57A G73U reads no more than 0.026; that for C29A C34U, no more than 0.026; that for C12U C72A, no more than 0.026.
With U4G A31G U63C the figure was no more than 0.026.
As for A24U A33G, the nonsense suppression turned out to be 0.117.
The result for U22G A31C reads no more than 0.026; that for G10A G61C, no more than 0.026.
As to U20C G61A, the nonsense suppression came to 0.212.
With U4G C5U G65U C79U G84C the figure was no more than 0.026; with U2G G28U U35C, no more than 0.026.
U8A G19U C29G C34U: the nonsense suppression was no more than 0.026.
With A30U C79G the figure was no more than 0.026; with G19C U57C, no more than 0.026; with A31U, 0.177.
With C11U U16A A54U the figure was no more than 0.026.
Turning to A31U A62U, the nonsense suppression worked out at 0.0539.
With A30C U76C, the nonsense suppression is no more than 0.026.
The result for C1G A9U G59A reads no more than 0.026.
The result for A23U G78A reads no more than 0.026; that for C11G G26C A30C, no more than 0.026; that for C12U A13G A30C, no more than 0.026.
The result for C3G G6A G19U A31U G66U G69C reads no more than 0.026; that for C12U G26A, no more than 0.026; that for A9G U35C C79G, no more than 0.026.
In the case of C5U A13C A31U G61U G65C, the nonsense suppression is no more than 0.026.
For the variant G69A A87G, the nonsense suppression was no more than 0.026.
With C3U C12U C82G the figure was no more than 0.026; with A9G A23U, no more than 0.026.
The result for G28A G59C A60U U63C G73A reads no more than 0.026.
On to G10U G61A C81U, for which the nonsense suppression is no more than 0.026.
With C3U A13G U17G C64U U71G C81A G84U the figure was no more than 0.026; with A62G U76G, no more than 0.026.
On to U2C A9U A30G U55C, for which the nonsense suppression is no more than 0.026.
The result for U57C U71A C77U C81G reads no more than 0.026; that for C1A U4G, no more than 0.026.
The result for G6C C12U reads no more than 0.026; that for U17G A23C C27U G67C, no more than 0.026; that for C1A G6C U8G, no more than 0.026.
With U2A G7C U16G A60U C64G A74C the figure was no more than 0.026.
For the variant U58C C72U C77A, the nonsense suppression was no more than 0.026.
With U57C A62U the figure was no more than 0.026.
With U20C U63G, the nonsense suppression stood at 0.0493.
With C3A C5U U22C the figure was no more than 0.026.
With A30C G86A the figure was no more than 0.026; with U2G G26A C34U U55A C75A, no more than 0.026.
With U8G G78A the figure was no more than 0.026.
As for U35C G65U, the nonsense suppression is no more than 0.026.
As to C1A A9C U17A A24C U35G G67U G84A G86A G88A, the nonsense suppression is no more than 0.026.
Take U8A G25C C29A C72U G88U: the nonsense suppression is no more than 0.026.
In the case of A30U G69C C72U, the nonsense suppression was no more than 0.026.
With U21G A74U the figure was no more than 0.026; with U22G A60G G66A, no more than 0.026; with G67A C83U, no more than 0.026.
The result for A60U C83G reads no more than 0.026.
In the case of C56G U57A G65U G69U, the nonsense suppression was no more than 0.026.
On to G67C U70G, for which the nonsense suppression is no more than 0.026.
For U4C A9G G15A A30U, the nonsense suppression is 0.0449.
For the variant G19C U21C G32U U57C U70C C72G, the nonsense suppression was no more than 0.026.
G25A C29G G73C: the nonsense suppression is no more than 0.026.
The result for U8C G18A U35G reads no more than 0.026; that for C11U A24U C77G, no more than 0.026.
With U8A C29U C72A the figure was no more than 0.026; with U4A G7C C81A, no more than 0.026.
With C3G A14G U16C U35G G88A the figure was no more than 0.026; with A9C C12G U70C, no more than 0.026; with G6U C27U G61C C81U, no more than 0.026.
Regarding C29A U35C, the nonsense suppression was no more than 0.026.
The result for C1G U4G A9U C11G G19A U57G reads no more than 0.026; that for G18A A30U, 0.0262; that for C3A C5G G6C A30U U55A G78A G84A G88C, no more than 0.026.
With C3G C34A the figure was no more than 0.026.
With C5U C12U C81U the figure was no more than 0.026.
In the case of C12U U22G G26U, the nonsense suppression was no more than 0.026.
On to U8G A13U G15U A24U U55A G86A, for which the nonsense suppression is no more than 0.026.
With C11G G66C the figure was no more than 0.026; with U21G C29U, 0.809; with G15A C27U A60U, no more than 0.026.
With G18A G84A the figure was no more than 0.026; with A13G U17C A23C C75A G88A, no more than 0.026; with C29G A62G G85C, no more than 0.026.
For G25C A33G, the nonsense suppression was no more than 0.026.
With C56U C64U the figure was no more than 0.026; with C3U U8C C34G G84C, no more than 0.026; with G7C U71A, no more than 0.026.
The result for G7A reads no more than 0.026.
The result for C64U C82A reads no more than 0.026.
In the case of G19C A33C G61U U71C A74G, the nonsense suppression is no more than 0.026.
The result for C11A G32C G61U reads no more than 0.026; that for A14G G19C C29A C56A G88C, no more than 0.026.
With G66A G67C the figure was no more than 0.026.
The result for G32U C72G reads no more than 0.026; that for U20C G59A C82U, no more than 0.026.
For the variant U16A G59A, the nonsense suppression is 0.32.
U35A U55A: the nonsense suppression was no more than 0.026.
The result for U8G C29A G32U reads no more than 0.026.
With C3A U35G G61A C77G the figure was no more than 0.026; with G84U, no more than 0.026.
The result for A30G G67A reads no more than 0.026.
As to C11A G15C A23U C83U G84A, the nonsense suppression was no more than 0.026.
With U8A A9G C27G U76A the figure was no more than 0.026; with A33C G73U, no more than 0.026.
